Molecules are shown by their SMILES. Over roughly 110,000 compounds, “z-score” has its median near -0.1; the highest 2% begin near 2. Some of the results follow.

The experiment deals with Metabotropic glutamate receptor 8 (Rattus norvegicus) (UniProt P70579). Kind of experiment: rat mGluR8 modulators via GIRK flux, primary screen, cell-based, thallium flux, HTS (AID 488969). To be noted: HEK293 rat mGluR8, GIRK (G protein-gated inwardly rectifying potassium channel) thallium flux, FluoZin2; at 10 µM; stronger effect = higher value.
Chain of UniProt P70579 (P70579 whole entry, looked up): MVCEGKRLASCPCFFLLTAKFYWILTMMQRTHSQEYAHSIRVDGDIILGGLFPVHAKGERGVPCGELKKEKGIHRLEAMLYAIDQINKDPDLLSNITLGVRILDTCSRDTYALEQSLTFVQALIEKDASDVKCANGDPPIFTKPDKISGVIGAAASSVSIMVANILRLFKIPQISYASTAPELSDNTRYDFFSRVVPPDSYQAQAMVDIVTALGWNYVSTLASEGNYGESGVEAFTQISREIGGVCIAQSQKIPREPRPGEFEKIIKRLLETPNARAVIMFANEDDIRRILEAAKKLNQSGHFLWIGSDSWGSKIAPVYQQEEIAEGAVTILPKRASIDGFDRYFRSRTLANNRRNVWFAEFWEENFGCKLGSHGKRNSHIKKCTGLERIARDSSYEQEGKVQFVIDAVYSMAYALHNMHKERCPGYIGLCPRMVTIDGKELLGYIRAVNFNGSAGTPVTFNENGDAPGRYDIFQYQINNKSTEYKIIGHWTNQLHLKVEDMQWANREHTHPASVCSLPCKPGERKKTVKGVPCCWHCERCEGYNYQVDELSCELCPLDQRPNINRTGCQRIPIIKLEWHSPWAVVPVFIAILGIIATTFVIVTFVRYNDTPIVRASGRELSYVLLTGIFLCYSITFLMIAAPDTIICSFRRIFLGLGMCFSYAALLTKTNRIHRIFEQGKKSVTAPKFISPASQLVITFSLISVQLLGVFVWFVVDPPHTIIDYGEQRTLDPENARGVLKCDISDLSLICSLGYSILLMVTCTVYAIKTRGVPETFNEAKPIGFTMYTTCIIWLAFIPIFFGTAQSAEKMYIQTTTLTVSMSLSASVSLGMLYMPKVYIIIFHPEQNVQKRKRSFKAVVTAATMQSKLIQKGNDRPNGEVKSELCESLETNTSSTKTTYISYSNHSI
Compound `CC(=O)OC1N=C(c2ccccc2)c2cc(C)ccc2NC1=O` (stereo unspecified) had a z-score of -0.00312. Regarding `CN(C)P(=O)(C(Cl)=C(N1CCCCC1)N1CCCCC1)N(C)C`, the z-score was -1.19. For the compound `C=CCn1c(O)c(C(CC)=NC2CC2)c(=O)[nH]c1=O`, the z-score came to 0.102. Take `Cc1[nH]c2c(Cl)cccc2c1CCN`: the z-score worked out at 0.371. With `CN1CCN(c2nc3ccccn3c(=O)c2C=C2C(=O)N(C)C(=O)N(C)C2=O)CC1` the figure was -0.342.

As for `CCn1c(O)c(C=NCc2cccs2)c(=O)[nH]c1=O`, the z-score stood at 0.34. With `CCOC(C(=O)OCCC[N+](C)(CC)CC)(c1ccccc1)c1ccccc1` the figure was 0.315. `O=C(O)CCn1cc(C=C2C(=O)NC(=O)NC2=O)c(-c2ccc(Br)cc2)n1`: the z-score was -0.399. `CCOC(=O)c1cccc([P+](=O)O)c1` displayed a z-score of 0.00569.

`Cc1cccc(-n2c(O)c(/C=N/N3CCOCC3)c(=O)[nH]c2=S)c1`: the z-score turned out to be 0.213.

The compound `COc1ccccc1N(CC(=O)NC1CCCC1)C(=O)c1cnn(C(C)C)c1` yielded a z-score of 0.12. With `O=C(Cn1ncc2ccsc2c1=O)N1CCC2(CC1)OCCO2` the figure was 0.0064. With `C=CCn1c(O)c(C(C)=Nc2ccc(NC(C)=O)cc2)c(=O)[nH]c1=O` the figure was 0.205. As to `CCCC12CN3CN(C1)CC(CCC)(C3)C2O` (stereo unspecified), the z-score stood at 0.0139. The compound `COC(=O)C(O)(c1ccc(NC(=S)NC(=O)c2ccc(Cl)cc2Cl)c(C)c1)C(F)(F)F` (stereo unspecified) had a z-score of 1.19.

Regarding `CCN(CC)CCOC(=O)c1ccc(N=Cc2c(O)[nH]c(=O)[nH]c2=O)cc1`, the z-score was -0.19.

The compound `CCC(=NCC1CCCO1)c1c(O)n(Cc2ccccc2)c(=O)[nH]c1=O` (stereo unspecified) returned a z-score of -0.35. The figure for `CC(=NCC1CCCO1)c1c(O)n(-c2ccc(Cl)cc2)c(=O)[nH]c1=O` (stereo unspecified) is -1.18; for `CCCCn1c(O)c(C(C)=NCCCn2ccnc2)c(=O)[nH]c1=O` it is 2.03; for `CCC(CC)N1CCN(C(=O)Cc2ccccc2)CC1` it is -1. `CCOc1ccc(-n2c(O)c(C=Nc3ccc(N4CCOCC4)cc3)c(=O)[nH]c2=O)cc1` showed a z-score of -0.315. With `CCOC(=O)Cn1cc([N+](=O)[O-])nc1[N+](=O)[O-]` the figure was -0.0497; with `O=C1CCCC2=C1C(c1cccnc1)Nc1ccccc1N2` (stereo unspecified), -0.306; with `CCCCNc1ccncc1S(=O)(=O)NC(=O)NC(C)C`, 0.211. In turn, `O=Cc1cn(Cc2ccc([N+](=O)[O-])cc2)c2ccccc12` showed a z-score of -0.285. Take `C=CCN1C(=O)NC(=O)/C(=C/c2cnc(SC)nc2)C1=O`: the z-score is -0.204. `CC(C)CCOC(=O)c1c(N)n(CC2CCCO2)c2nc3ccccc3nc12` (stereo unspecified) displayed a z-score of -0.606. Compound `CCc1c(C)nc(N)nc1N1N=C1SCC(N)=O` registered a z-score of 0.609. In turn, `CCCOC(=O)c1c(N)n(Cc2cccs2)c2nc3ccccc3nc12` registered a z-score of -0.325.

Consider `N#CC1=C(N)Oc2c(c(=O)oc3ccccc23)C1c1ccncc1` (stereo unspecified), for which the z-score is -0.0723. The figure for `CC1SC2(CN3CCC2CC3)NC1=O` (stereo unspecified) is -0.0378. With `CCOc1ccc(/C=C2/C(=O)NC(=O)N(CCc3ccc(F)cc3)C2=O)cc1` the figure was -0.376; with `COCc1cc(C2SCC(=O)Nc3c2c(=O)[nH]n3C(C)C)ccc1OC` (stereo unspecified), -0.915; with `CCSc1nnc(C(N)Cc2ccccc2)o1` (stereo unspecified), 0.136. Take `CC(C)NC(=O)Cn1cc(C(=O)c2ccccc2F)c2ccccc21`: the z-score was -0.23. With `Cc1sc2ncn(CC(=O)NCCCC(=O)N3CCC4(CC3)OCCO4)c(=O)c2c1C` the figure was -0.142; with `Cc1nn(Cc2ccccc2)c(C)c1C(=O)OCC(=O)NCc1ccco1`, -0.108. The figure for `Cn1c(O)c(C(c2ccccn2)c2c(O)n(C)c(=S)[nH]c2=O)c(=O)[nH]c1=S` is -0.0951. Compound `CN1C(=O)C(=Cc2ccccc2OCc2ccccc2Cl)C(=O)N(C)C1=O` displayed a z-score of -0.259.

For the compound `Cc1cc(OC(=O)c2ccco2)c2c3c(c(=O)oc2c1)CCCC3`, the z-score worked out at 1.05. The figure for `Cc1ccc(-c2nc(CS(=O)CC(=O)N3CCC4(CC3)OCCO4)c(C)o2)cc1` (stereo unspecified) is 1.52.

In turn, `CCOP(=O)(OCC)C(C)(C)NC(=O)C(Cl)(Cl)Cl` returned a z-score of 0.176. With `COc1cccc(C2CC3C(=O)C=CC2N3Cc2ccccc2)c1` (stereo unspecified) the figure was -0.129; with `CC(Cc1ccccc1)[n+]1cc(/N=C(\[O-])Nc2ccccc2)on1` (stereo unspecified), 0.153; with `CCCC(C)C1C(C#N)=C(N)Oc2c1c(=O)oc1ccccc21` (stereo unspecified), 0.0029.

`CC(C)CNC(=O)c1c(N)n(Cc2ccc3c(c2)OCO3)c2nc3ccccc3nc12` yielded a z-score of 0.129. With `Cc1ccc2ccccc2c1NC(=O)CNC1CCCCC1` the figure was -0.297; with `Cc1nn(CCC#N)c2c1P(=S)(N1CCCC1)OC(c1ccc(F)cc1)=N2` (stereo unspecified), -1.71. The figure for `CCCCc1nc2ccccc2c(=O)n1-c1ccc(Cl)cc1[N+](=O)[O-]` is -0.107; for `Cn1c(O)c(C(=N)COc2cccc(Cl)c2)c(=O)n(C)c1=O` it is 0.514; for `O=C1CN=C(c2ccc(Br)cc2)c2oc3ccccc3c2N1` it is -0.00811. As to `Cc1ccc(N2C(=O)/C(=C/N3CCN(C(=O)c4ccco4)CC3)C(=O)NC2=S)cc1C`, the z-score is -0.105. The compound `O=C(Cc1ccc(Br)cc1)N1CCN(Cc2ccccc2)CC1` showed a z-score of 0.0955. With `CC(=O)NC1CC2CCC(C1)N2` (stereo unspecified) the figure was -0.344. `CCCCOP(=O)(CN1CCOCC1)OCCCC` had a z-score of -0.167. `CC1=CC(=C2C(=O)NC(=O)NC2=O)C=C(C(F)(F)F)N1C(C)C` displayed a z-score of 0.0509.

The values above are taken from PubChem BioAssay AID488969 (Vanderbilt High Throughput Screening Facility, 2010).
